Test results: the RNAGym collection of RNA variant scans (doi:10.7554/elife.90254)
Read counts are not given, so values of variants with three or more changes are uncertain.

B1: LINE1-mini (parent)
chain: GGCAGAGCUCAACACAGCGUGGCAAAGUGGCUGUGGCUAGACUGCC

Variants of: B1
Assay: self-cleavage, relative activity (ratio to wild type); higher = more cleavage; in vitro, sequencing; the parent is a self-cleaving ribozyme

| Variant | self-cleavage |
| --- | --- |
| GGCAGAGCUCAACACAGCGUGGCGGAGUGGGUGUGGCUAGACUACC [A24G A25G C31G G44A] | 0.03 |
| GGCAGAGCUCAACACAGCGUGGCGAAGUGUCUGUGCCUAGACUGCC [A24G G30U G36C] | 0.03 |
| GGCAGAGCUCAACACAGCGUGGCCACGUGGCUGUGGCUAGACUCCC [A24C A26C G44C] | 0.05 |
| GGCAGAGCUCAACACAGCGUGGCCAAGUGGUUGUGGCUAGACUGCG [A24C C31U C46G] | 0.04 |
| GGCAGAGCUCAACACAGCGUGGCCUAGUGGCUGUGGCUAGCCUGCC [A24C A25U A41C] | 0.06 |
| GGCAGAGCUCAACACAGCGUGGCCAAGUGGCUACGGCUAGACUGCC [A24C G33A U34C] | 0.01 |
| GGCAGAGCUCAACACAGCGUGGCCAAGUGGCUGUCGCCACACUGCC [A24C G35C U38C G40C] | 0.03 |
| GGCAGAGCUCAACACAGCGUGGCGUAGUGUCUGUGGCUAGACUGCC [A24G A25U G30U] | 0.56 |
| GGCAGAGCUCAACACAGCGUGGCCAAGUGGCUGUCGCUAGACUGAC [A24C G35C C45A] | 0.08 |
| GGCAGAGCUCAACACAGCGUGGCCAAGUGGCUGUGGCCAGAAUGCC [A24C U38C C42A] | 0.08 |
| GGCAGAGCUCAACACAGCGUGGCGAAUUGGCUGUGGAUAGACUGCC [A24G G27U C37A] | 0.04 |
| GGCAGAGCUCAACACAGCGUGGCCAAGUGGCCGUGUUUAGACUGCC [A24C U32C G36U C37U] | 0.01 |
| GGCAGAGCUCAACACAGCGUGGCCACGUGGUUGUGGCUAGACUGCC [A24C A26C C31U] | 0.08 |
| GGCAGAGCUCAACACAGCGUGGCCAAGUGGCUGUGGUUGGACUGCC [A24C C37U A39G] | 0 |
| GGCAGAGCUCAACACAGCGUGGCCAAGUGGCUCUGGAUAGACUGGC [A24C G33C C37A C45G] | 0.08 |
| GGCAGAGCUCAACACAGCGUGGCCAUGUGGCUGUGGCCUGACUGCC [A24C A26U U38C A39U] | 0.17 |
| GGCAGAGCUCAACACAGCGUGGCCUAGUGGCUUUGGCUAGACGGUC [A24C A25U G33U U43G C45U] | 0.03 |
| GGCAGAGCUCAACACAGCGUGGCGAGGUGGCUGUGGCUAGACUGCG [A24G A26G C46G] | 0.44 |
| GGCAGAGCUCAACACAGCGUGGUAAAGUGGCUGGGGCCAGACUGCC [C23U U34G U38C] | 0 |

| Variant | self-cleavage |
| --- | --- |
| GGCAGAGCUCAACACAGCGUGGCCAAGUAGGUGUGGCUAGACUGCC [A24C G29A C31G] | 0.08 |
| GGCAGAGCUCAACACAGCGUGGCGAAGUGGCUGUGCAUAGACUGGC [A24G G36C C37A C45G] | 0.09 |
| GGCAGAGCUCAACACAGCGUGGCCAAGUGGCUCUGGCAAGACUGCC [A24C G33C U38A] | 0.02 |
| GGCAGAGCUCAACACAGCGUGGCGAUGUGGCUGUGGCUACUCAGCC [A24G A26U G40C A41U U43A] | 0.08 |
| GGCAGAGCUCAACACAGCGUGGCGAAGUGGAUUUAGCUAGACUGCC [A24G C31A G33U G35A] | 0.03 |
| GGCAGAGCUCAACACAGCGUGGCGAAGUGGCCGUGGUUAUACUGCC [A24G U32C C37U G40U] | 0.07 |
| GGCAGAGCUCAACACAGCGUGGCCAAGUGGCUGUGGGUAGACUGCA [A24C C37G C46A] | 0.02 |
| GGCAGAGCUCAACACAGCGUGGCCAAGUUGCUGAGGCUAGACUGCC [A24C G29U U34A] | 0.15 |
| GGCAGAGCUCAACACAGCGUGGCGAAUUUGCUGUGGCUAGACUGCC [A24G G27U G29U] | 1 |
| GGCAGAGCUCAACACAGCGUGGCCUAGUAGCUGUGGCUAGACUGCC [A24C A25U G29A] | 0.61 |
| GGCAGAGCUCAACACAGCGUGGUAAAGUGGCCGUGGCUACACUGCC [C23U U32C G40C] | 0.1 |
| GGCAGAGCUCAACACAGCGUGGCCACGUGGCUGUGGCUUGACUGCC [A24C A26C A39U] | 0.14 |
| GGCAGAGCUCAACACAGCGUGGCCAAGUGGCUGUUGCCAGACUGCC [A24C G35U U38C] | 0.08 |
| GGCAGAGCUCAACACAGCGUGGCGUAGUGGCUGUGGCUAGACUGCU [A24G A25U C46U] | 0.77 |
| GGCAGAGCUCAACACAGCGUGGCGAAGUGGCUGUGGCUAGAAUGCA [A24G C42A C46A] | 0.07 |
| GGCAGAGCUCAACACAGCGUGGCCAAGUGGCUGUGGCUACACUGCU [A24C G40C C46U] | 0.02 |
| GGCAGAGCUCAACACAGCGUGGCCAAGUGGCUGUUGCUAGACAGCC [A24C G35U U43A] | 0.02 |
| GGCAGAGCUCAACACAGCGUGGUAAAGUGGCGGUGGGUAGACUGAG [C23U U32G C37G C45A C46G] | 0.03 |
| GGCAGAGCUCAACACAGCGUGGCGCAGUGGCUGUCGCUAGACUGCC [A24G A25C G35C] | 0.05 |

| Variant | self-cleavage |
| --- | --- |
| GGCAGAGCUCAACACAGCGUGGCCAAGUGGCUCGAGCUAGACAGCU [A24C G33C U34G G35A U43A C46U] | 0.01 |
| GGCAGAGCUCAACACAGCGUGGCCAGGUGGCUGUGGCUAAAGUGCC [A24C A26G G40A C42G] | 0.02 |
| GGCAGAGCUCAACACAGCGUGGCGAAGCGGCUGUGGCUAGGCUGCC [A24G U28C A41G] | 0.14 |
| GGCAGAGCUCAACACAGCGUGGCCAAGUGACUGUGGCUAAACUGCC [A24C G30A G40A] | 0.13 |
| GGCAGAGCUCAACACAGCGUGGCGUGGCGGCUGUGGCUAGACUGCC [A24G A25U A26G U28C] | 0.31 |
| GGCAGAGCUCAACACAGCGUGGCGGAGUCGGUGUGGCUAAAAUGCC [A24G A25G G29C C31G G40A C42A] | 0.07 |
| GGCAGAGCUCAACACAGCGUGGCGAAGAGGCUGUGGCUAGAUUGCC [A24G U28A C42U] | 0.11 |
| GGCAGAGCUCAACACAGCGUGGUAAAGUGGCUGGGGCUACAAUGCC [C23U U34G G40C C42A] | 0.12 |
| GGCAGAGCUCAACACAGCGUGGCGAAGUGUCUGUGGCUAGUCUGCC [A24G G30U A41U] | 0.26 |
| GGCAGAGCUCAACACAGCGUGGUAAAGUGGCUGAGGCUAGUCUGCC [C23U U34A A41U] | 0.07 |
| GGCAGAGCUCAACACAGCGUGGCCAACUGGCUGUAGCUAAACUGCC [A24C G27C G35A G40A] | 0.03 |
| GGCAGAGCUCAACACAGCGUGGCGAAGUGGCUGUGGAUAAACUGCG [A24G C37A G40A C46G] | 0.18 |
| GGCAGAGCUCAACACAGCGUGGCGAAGUGGAUGUGGGUAGACUGCC [A24G C31A C37G] | 0.04 |
| GGCAGAGCUCAACACAGCGUGGCCAGUUGGCGGUGGCUAAACCGCC [A24C A26G G27U U32G G40A U43C] | 0 |
| GGCAGAGCUCAACACAGCGUGGCCAUGUCGCUGGGGCGAGACUGCC [A24C A26U G29C U34G U38G] | 0.02 |
| GGCAGAGCUCAACACAGCGUGGCGAAGUGGCUGUCACGAGGCUGCC [A24G G35C G36A U38G A41G] | 0.02 |
| GGCAGAGCUCAACACAGCGUGGCGAAGCGGCUCUGGCUACACUUCC [A24G U28C G33C G40C G44U] | 0.01 |
| GGCAGAGCUCAACACAGCGUGGCCAAGUAGCUGUCGCUAGACUGCC [A24C G29A G35C] | 0.41 |
